IC50 is the fitted dose that halves viability relative to control wells, and lower means more sensitive; fits outside the tested doses are given as limits. The AUC spans the tested range (256-fold, ending at the top dose) of the same fit; the more sensitive the line, the further below 1. A top dose marked as inferred was calculated from the reported fits.
What was measured:
Assay in all cases: Viability of human cancer cell lines after 72 h of drug (GDSC screen)
NG-25 = compound: CCN1CCN(Cc2ccc(NC(=O)c3ccc(C)c(Oc4ccnc5[nH]ccc45)c3)cc2C(F)(F)F)CC1 [NG-25]; details: top dose 10.24 µM; top dose inferred
Protocol: (§1)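 Human cancer cell lines in 384-well plates, medium with 10% serum, drug for 72 h over a 256-fold dose range (nine 2-fold or five 4-fold steps up to the top dose). Adherent lines were fixed and stained with the nucleic acid dye Syto60, suspension lines read with resazurin; signal relative to control wells, capped at 0 and 100%. One two-parameter sigmoid per drug and line, fitted in a mixed model over all curves with the slope shared within a line.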

Tipifarnib = compound: Cn1cncc1[C@@](N)(c1ccc(Cl)cc1)c1ccc2c(c1)c(-c1cccc(Cl)c1)cc(=O)n2C [Tipifarnib]; details: top dose 16 µM; top dose inferred
Protocol: as §1

GSK-1904529A = compound: CCc1cc(Nc2nccc(-c3c(-c4ccc(OC)c(C(=O)Nc5c(F)cccc5F)c4)nc4ccccn34)n2)c(OC)cc1N1CCC(N2CCN(S(C)(=O)=O)CC2)CC1 [GSK-1904529A]; details: top dose 1.024 µM; top dose inferred
Protocol: as §1

PFI-1 = compound: COc1ccccc1S(=O)(=O)Nc1ccc2c(c1)CN(C)C(=O)N2 [PFI-1]; details: top dose 10 µM; top dose inferred
Protocol: as §1

BMS-509744 = compound: COc1cc(C)c(Sc2cnc(NC(=O)c3ccc(CNC(C)C(C)(C)C)cc3)s2)cc1C(=O)N1CCN(C(C)=O)CC1 [BMS-509744]; details: top dose 10.24 µM; top dose inferred
Protocol: as §1

Cell Line | AUC (NG-25) | IC50 (NG-25) [µM] | AUC (Tipifarnib) | IC50 (Tipifarnib) [µM] | AUC (GSK-1904529A) | IC50 (GSK-1904529A) [µM] | AUC (PFI-1) | IC50 (PFI-1) [µM] | AUC (BMS-509744) | IC50 (BMS-509744) [µM]
SLVL (B-cell lymphoma, suspension) | 0.522 | 0.739 | 0.629 | 2.33 | 0.98 | > 1.02 | 0.905 | > 10 | 0.946 | > 10.2
TE-12 (oesophagus, suspension) | 0.892 | > 10.2 | 0.64 | 2.67 | 0.915 | > 1.02 | 0.938 | > 10 | 0.686 | 2.39
JM1 (B-cell lymphoma, suspension) | 0.813 | 4.59 | 0.765 | 5.06 | 0.99 | > 1.02 | 0.832 | 5.17 | 0.901 | 9.92
SR (lymphoid neoplasm, suspension) | 0.828 | 5.48 | 0.59 | 1.71 | 0.963 | > 1.02 | 0.817 | 4.9 | 0.885 | 9.21
NB14 (neuroblastoma, adherent) | 0.798 | 4.54 | 0.878 | 14.6 | 0.986 | > 1.02 | 0.938 | > 10 | 0.948 | > 10.2
LOUCY (T-cell lymphoblastic leukaemia, suspension) | 0.536 | 0.789 | 0.909 | 15.1 | 0.991 | > 1.02 | 0.74 | 2.59 | 0.888 | 7.84
EW-13 (Ewing sarcoma, suspension) | 0.406 | 0.342 | 0.666 | 3.06 | 0.983 | > 1.02 | 0.978 | > 10 | 0.901 | > 10.2
NB13 (neuroblastoma, adherent) | 0.786 | 3.9 | 0.705 | 3.49 | 0.982 | > 1.02 | 0.92 | > 10 | 0.916 | > 10.2
A3-KAW (B-cell lymphoma, suspension) | 0.708 | 2.14 | 0.404 | 0.578 | 0.991 | > 1.02 | 0.547 | 0.819 | 0.925 | > 10.2
CPC-N (small cell lung carcinoma, suspension) | 0.923 | > 10.2 | 0.797 | 8.36 | 0.967 | > 1.02 | 0.843 | 8.1 | 0.915 | > 10.2
SBC-1 (small cell lung carcinoma, suspension) | 0.969 | > 10.2 | 0.823 | 8.97 | 0.971 | > 1.02 | 0.74 | 2.95 | 0.973 | > 10.2
BE-13 (lymphoblastic leukaemia, suspension) | 0.36 | 0.27 | 0.68 | 3.07 | 0.982 | > 1.02 | 0.902 | > 10 | 0.825 | 5.62
Hs-445 (Hodgkin lymphoma, suspension) | 0.83 | 5.78 | 0.573 | 1.56 | 0.984 | > 1.02 | 0.853 | 6.94 | 0.95 | > 10.2
ES6 (Ewing sarcoma, adherent) | 0.829 | 8.52 | 0.43 | 0.614 | 0.964 | > 1.02 | 0.959 | > 10 | 0.67 | 2.15
IST-MEL1 (melanoma, adherent) | 0.802 | 6.21 | 0.612 | 2.16 | 0.976 | > 1.02 | 0.939 | > 10 | 0.819 | 7.3
OCI-AML5 (acute myeloid leukaemia, suspension) | 0.73 | 2.7 | 0.727 | 4.14 | 0.989 | > 1.02 | 0.899 | > 10 | 0.807 | 4.73
HDLM-2 (Hodgkin lymphoma, suspension) | 0.989 | > 10.2 | 0.888 | > 16 | 0.987 | > 1.02 | 0.909 | > 10 | 0.956 | > 10.2
RL (B-cell lymphoma, suspension) | 0.185 | 0.0813 | 0.984 | > 16 | 0.989 | > 1.02 | 0.904 | > 10 | 0.891 | > 10.2
NCI-H211 (small cell lung carcinoma, adherent) | 0.848 | 7.28 | 0.563 | 1.48 | 0.985 | > 1.02 | 0.867 | 8.6 | 0.906 | > 10.2
HCC2157 (breast, suspension) | 0.98 | > 10.2 | 0.379 | 0.456 | 0.914 | > 1.02 | 0.889 | > 10 | 0.967 | > 10.2
LB373-MEL-D (melanoma, adherent) | 0.924 | > 10.2 | 0.729 | 4.42 | 0.987 | > 1.02 | 0.885 | > 10 | 0.913 | > 10.2
NCI-H1975 (lung adenocarcinoma, adherent) | 0.925 | > 10.2 | 0.532 | 1.24 | 0.98 | > 1.02 | 0.924 | > 10 | 0.774 | 4.6
SU-DHL-4 (B-cell lymphoma, suspension) | 0.578 | 0.988 | 0.898 | 10 | 0.997 | > 1.02 | 0.997 | > 10 | 0.975 | > 10.2
DMS-114 (small cell lung carcinoma, adherent) | 0.922 | > 10.2 | 0.897 | > 16 | 0.984 | > 1.02 | 0.841 | 8.55 | 0.951 | > 10.2
BC-1 (B-cell lymphoma, suspension) | 0.803 | 4.21 | 0.238 | 0.202 | 0.977 | > 1.02 | 0.649 | 1.51 | 0.902 | 9.86

Cell Line | AUC (NG-25) | IC50 (NG-25) [µM] | AUC (Tipifarnib) | IC50 (Tipifarnib) [µM] | AUC (GSK-1904529A) | IC50 (GSK-1904529A) [µM] | AUC (PFI-1) | IC50 (PFI-1) [µM] | AUC (BMS-509744) | IC50 (BMS-509744) [µM]
Farage (B-cell lymphoma, suspension) | 0.363 | 0.289 | 0.781 | 5.41 | 0.992 | > 1.02 | 0.992 | > 10 | 0.955 | > 10.2
TC-71 (Ewing sarcoma, adherent) | 0.787 | 3.67 | 0.961 | > 16 | 0.992 | > 1.02 | 0.831 | 4.94 | 0.982 | > 10.2
COLO-800 (melanoma, adherent) | 0.953 | > 10.2 | 0.909 | > 16 | 0.987 | > 1.02 | 0.8 | 4.67 | 0.984 | > 10.2
NCI-H1581 (large cell lung carcinoma, semi-adherent) | 0.859 | 7.45 | 0.91 | > 16 | 0.99 | > 1.02 | 0.952 | > 10 | 0.961 | > 10.2
OCI-AML2 (acute myeloid leukaemia, suspension) | 0.858 | 5.23 | 0.562 | 1.41 | 0.995 | > 1.02 | 0.641 | 1.38 | 0.908 | 7.67
MHH-PREB-1 (B-cell leukaemia, suspension) | 0.535 | 0.789 | 0.693 | 3.26 | 0.988 | > 1.02 | 0.759 | 3.16 | 0.894 | 10.1
L-1236 (Hodgkin lymphoma, suspension) | 0.923 | > 10.2 | 0.92 | > 16 | 0.992 | > 1.02 | 0.77 | 3.23 | 0.953 | > 10.2
NCI-H1395 (lung adenocarcinoma, adherent) | 0.846 | > 10.2 | 0.894 | > 16 | 0.982 | > 1.02 | 0.894 | > 10 | 0.959 | > 10.2
EW-3 (Ewing sarcoma, adherent) | 0.814 | 6.59 | 0.906 | > 16 | 0.982 | > 1.02 | 0.815 | 6.5 | 0.862 | > 10.2
TE-15 (oesophagus, suspension) | 0.774 | 4.55 | 0.373 | 0.424 | 0.981 | > 1.02 | 0.982 | > 10 | 0.88 | > 10.2
TGBC24TKB (biliary tract, adherent) | 0.927 | > 10.2 | 0.779 | 6.1 | 0.983 | > 1.02 | 0.861 | 7.56 | 0.882 | 9.67
TE-5 (oesophagus, adherent) | 0.982 | > 10.2 | 0.651 | 2.81 | 0.983 | > 1.02 | 0.806 | 6.02 | 0.943 | > 10.2
LU-134-A (small cell lung carcinoma, suspension) | 0.904 | > 10.2 | 0.952 | > 16 | 0.982 | > 1.02 | 0.874 | > 10 | 0.889 | > 10.2
MZ2-MEL (melanoma, adherent) | 0.846 | 9.44 | 0.584 | 1.76 | 0.96 | > 1.02 | 0.87 | > 10 | 0.795 | 5.68
L-540 (Hodgkin lymphoma, suspension) | 0.869 | 7.72 | 0.733 | 4.22 | 0.99 | > 1.02 | 0.766 | 3.3 | 0.915 | > 10.2
KELLY (neuroblastoma, adherent) | 0.77 | 3.55 | 0.808 | 7.4 | 0.983 | > 1.02 | 0.908 | > 10 | 0.936 | > 10.2
8-MG-BA (glioma, adherent) | 0.879 | 9.4 | 0.582 | 1.66 | 0.988 | > 1.02 | 0.761 | 3.34 | 0.926 | > 10.2
RPMI-8402 (T-cell lymphoblastic leukaemia, suspension) | 0.672 | 1.77 | 0.512 | 1.07 | 0.974 | > 1.02 | 0.782 | 3.49 | 0.847 | 5.79
ARH-77 (myeloma, suspension) | 0.68 | 1.99 | 0.941 | > 16 | 0.988 | > 1.02 | 0.848 | 7.01 | 0.972 | > 10.2
NALM-6 (B-cell leukaemia, suspension) | 0.529 | 0.756 | 0.15 | 0.108 | 0.977 | > 1.02 | 0.861 | 6.33 | 0.848 | 5.82
COLO-320-HSR (large intestine, suspension) | 0.818 | 4.81 | 0.829 | 8.21 | 0.992 | > 1.02 | 0.976 | > 10 | 0.912 | > 10.2
SU-DHL-6 (B-cell lymphoma, suspension) | 0.496 | 0.626 | 0.318 | 0.361 | 0.995 | > 1.02 | 0.902 | 7.01 | 0.915 | 8.07
IST-MES1 (mesothelioma, adherent) | 0.831 | 6.58 | 0.779 | 6.59 | 0.982 | > 1.02 | 0.756 | 3.44 | 0.85 | 7.82
KNS-81-FD (glioma, adherent) | 0.877 | > 10.2 | 0.712 | 5 | 0.932 | > 1.02 | 0.904 | > 10 | 0.948 | > 10.2

From the supplement of paper PMC4967469
